Experimental data from the antibiotic and cytotoxicity screens of Wong et al. (2023).
Some of the results follow.

Each compound was assayed on HepG2 (assay: cytotoxicity call (relative viability < 0.9)). Settings: 10 µM.

Row | SMILES | cytotoxicity call
1 | COc1ccc(NC(=O)Nc2ccc3c(c2)C(=O)N([C@H](C)CO)C[C@H](C)[C@@H](CN(C)C(=O)c2ccccc2)OCCCC[C@H](C)O3)cc1 | inactive
2 | CC(C)NC(=O)Nc1ccc2c(c1)C(=O)N([C@H](C)CO)C[C@H](C)[C@@H](CN(C)Cc1ccc3c(c1)OCO3)O2 | inactive
3 | C[C@H]1CN([C@@H](C)CO)C(=O)c2cc(-c3cncnc3)cnc2O[C@H]1CN(C)C(=O)Nc1ccc2c(c1)OCO2 | inactive
4 | C[C@H](CO)N1C[C@H](C)[C@@H](CN(C)Cc2ccc3c(c2)OCO3)Oc2c(NC(=O)c3ccncc3)cccc2C1=O | inactive
5 | CCCN(C)C[C@@H]1OCCCC[C@@H](C)Oc2ccc(NC(=O)Nc3c(C)noc3C)cc2C(=O)N([C@H](C)CO)C[C@@H]1C | inactive
6 | Cc1ncc([N+](=O)[O-])n1C[C@@H](C)O | inactive
7 | CCCNC(=O)C[C@@H]1CC[C@H]2[C@H](COc3ccc(NC(=O)c4ccc5c(c4)OCO5)cc3C(=O)N2C)O1 | inactive
8 | Cc1ccc(S(=O)(=O)Nc2ccc3c(c2)C(=O)N([C@H](C)CO)C[C@@H](C)[C@@H](CN(C)S(=O)(=O)c2cn(C)cn2)O3)cc1 | inactive
9 | C[C@H](CO)N1C[C@H](C)[C@H](CN(C)CC2CC2)OCCCC[C@H](C)Oc2ccc(NC(=O)Nc3cccc4ccccc34)cc2C1=O | inactive
10 | C[C@H](CO)N1C[C@H](C)[C@@H](CN(C)C(=O)c2ccccc2F)Oc2ncc(C#Cc3ccncc3)cc2C1=O | inactive
11 | CC(C)(C)[C@H]1COC(=O)[C@@H](NC(=O)OCC2c3ccccc3-c3ccccc32)CC=CC[C@H](CC(=O)N(CCO)Cc2ccccc2)C(=O)N1 | inactive
12 | Cc1ccc(S(=O)(=O)Nc2ccc3c(c2)C(=O)N([C@H](C)CO)C[C@@H](C)[C@H](CN(C)Cc2ccc4c(c2)OCO4)OCCCC[C@@H](C)O3)cc1 | inactive
13 | C[C@H](CO)N1C[C@H](C)[C@@H](CN(C)C(=O)CN(C)C)Oc2cc(C#Cc3ccc(F)cc3)ccc2S1(=O)=O | inactive
14 | C[C@@H]1CN([C@@H](C)CO)C(=O)Cc2cc(NC(=O)Nc3ccc(F)cc3)ccc2O[C@H]1CN(C)Cc1ccc(-c2ccccc2)cc1 | active
15 | O=C(CCCCC(=O)N/N=C/[C@H](O)[C@@H](O)[C@@H](O)[C@H](O)C(=O)O)NO | inactive
16 | CCC1OC(=O)C(C)C(OC2CC(C)(OC)C(O)C(C)O2)C(C)C(OC2OC(C)CC(N(C)C)C2O)C(C)(OC)CC(C)C(=O)C(C)C(O)C1(C)O (stereo not given) | inactive
17 | CC(C)NC(=O)N(C)C[C@H]1Oc2c(NS(=O)(=O)c3cccs3)cccc2C(=O)N([C@H](C)CO)C[C@@H]1C | inactive
18 | C[C@@H]1CN([C@@H](C)CO)C(=O)Cc2cc(NC(=O)Nc3ccc(C(F)(F)F)cc3)ccc2O[C@@H]1CN(C)C(=O)Nc1ccc2c(c1)OCO2 | active
19 | C[C@@H]1CN([C@@H](C)CO)C(=O)c2cccc(NS(=O)(=O)c3ccc(F)cc3)c2O[C@H]1CN(C)Cc1ccc(Cl)c(Cl)c1 | inactive
20 | C[C@H](CO)N1C[C@H](C)[C@@H](CN(C)C(=O)NC2CCCCC2)OCCCC[C@H](C)Oc2ccc(NC(=O)Nc3ccc4c(c3)OCO4)cc2C1=O | inactive

Row | SMILES | cytotoxicity call
21 | COc1ccc(NC(=O)Nc2ccc3c(c2)C(=O)N([C@@H](C)CO)C[C@@H](C)[C@@H](CN(C)Cc2ccc(Oc4ccccc4)cc2)O3)cc1 | active
22 | NC(=O)c1cc(S(=O)(=O)N2CCOCC2)ccc1F | active
23 | C[C@@H]1O[C@H]2Oc3c(-c4ccc(O)c(O)c4)oc4cc(O)c(c(O)c4c3=O)-c3cc(ccc3O)/C=C\C(=O)OC[C@H]3O[C@@H](O[C@H]([C@H]1O)[C@H]2O)[C@H](O)[C@@H](O)[C@@H]3O | inactive
24 | C[C@@H]1CN([C@H](C)CO)C(=O)c2cccc(NC(=O)C3CC3)c2O[C@H]1CN(C)S(=O)(=O)c1cn(C)cn1 | inactive
25 | O=C(CCCCCCC(=O)N/N=C/[C@@H](O)[C@@H](O)[C@H](O)[C@H](O)CO)NO | inactive
26 | CCOC(=O)N(C)C[C@@H]1OCc2cnnn2CCCC(=O)N([C@H](C)CO)C[C@@H]1C | inactive
27 | C[C@@H]1CCCCO[C@H](CN(C)Cc2ccc3c(c2)OCO3)[C@H](C)CN([C@H](C)CO)C(=O)c2cc(NC(=O)Nc3ccccc3)ccc2O1 | active
28 | C[C@@H]1CCCCO[C@H](CN(C)C(=O)Nc2cccc3ccccc23)[C@H](C)CN([C@@H](C)CO)C(=O)c2cc(N(C)C)ccc2O1 | inactive
29 | Cn1cncc1C(=O)O | inactive
30 | Cc1noc(C)c1S(=O)(=O)Nc1ccc2c(c1)C(=O)N([C@@H](C)CO)C[C@H](C)[C@@H](CN(C)S(=O)(=O)c1cccs1)O2 | inactive
31 | C[C@@H]1CCCCO[C@@H](CN(C)CC2CCCCC2)[C@H](C)CN([C@H](C)CO)C(=O)c2cc(NC(=O)CCCCCC(=O)Nc3ccccc3N)ccc2O1 | inactive
32 | COc1ccc(-c2ccc3c(c2)O[C@@H](CN(C)CC2CCOCC2)[C@@H](C)CN([C@H](C)CO)S3(=O)=O)cc1 | inactive
33 | C[C@@H]1CN([C@H](C)CO)C(=O)c2cc(NC(=O)CCCN(C)C)ccc2O[C@@H]1CN(C)Cc1ccc(C(=O)O)cc1 | inactive
34 | C#Cc1cnc(OC)cn1 | inactive
35 | O=C(C[C@@H]1CC[C@H](NS(=O)(=O)c2ccccc2)[C@H](CO)O1)NCc1ccncn1 | inactive
36 | CCCN(C)C[C@H]1OCCCC[C@H](C)Oc2ccc(NC(=O)Nc3ccc(OC)cc3)cc2C(=O)N([C@H](C)CO)C[C@@H]1C | inactive
37 | O=C(C[C@H]1CC[C@H](NC(=O)Cc2ccccn2)[C@@H](CO)O1)NCCc1ccncc1 | inactive
38 | C[C@@H]1CCCCO[C@@H](CN(C)Cc2ccc(Cl)c(Cl)c2)[C@H](C)CN([C@H](C)CO)C(=O)c2cc(NS(=O)(=O)c3cn(C)cn3)ccc2O1 | inactive
39 | COC(=O)C1=C(C)NC(C)=C(C(=O)OC(C)(C)CN(C)CCC(c2ccccc2)c2ccccc2)[C@@H]1c1cccc([N+](=O)[O-])c1 | inactive
40 | C[C@H](O)C#Cc1ccc2c(c1)O[C@H](CN(C)C(=O)c1ccccc1)[C@@H](C)CN([C@@H](C)CO)S2(=O)=O | inactive
